Measured values: PubChem BioAssay AID1347120 (National Center for Advancing Translational Sciences (NCATS), 2019)
Among all 390,000 compounds or so, about 930 (0.24%) were called active. The inconclusive results got no clear call from the source; some entries with a clear call stand among them for comparison. Calls come from the whole dose curve; as a rule, active = well fitted activation curve with a large enough effect; inconclusive = small, poorly fitted or top-dose-only effect; inactive = no such curve, though single readings can be large or run the other way. Potencies of inconclusive entries are doubtful fits and often do not repeat.

test: qHTS for Suppressors of FUS Proteinopathy: Primary screen using FUS-linked yeast assay; note: nearly all actives have a fitted effect of over 55% in size;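 for growth rescue (activation): plate controls were DMSO vehicle for no effect and reference control for full effect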; conditions: S. cerevisiae FUS-expressing, OD600, 24 h; Potency: growth rescue; growth rescue (activation): at 76.6 µM (top of the series)
Procedure, shortened: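 Restored growth of FUS-toxic S. cerevisiae, read as 600 nm absorbance after 24 h at 30C in galactose medium (starting OD 0.005). Controls CP55940 and DMSO.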
Potency is the fitted concentration of half-maximal effect; tags give direction and shape of the fitted curve.

SMILES | Potency | growth rescue (activation)
CCc1ccccc1N1C(=O)N(Cc2cccc(Cl)c2)c2ccccc2S1(=O)=O | inconclusive: 10 µM [activator, partial curve, poor fit] | 
Cc1ccc(Nc2ccc([N+](=O)[O-])cn2)cc1Cl |  | inactive: -11.8%
CC(=O)c1ccc(NC(=O)C2CCC(CNS(=O)(=O)c3cccc4nsnc34)CC2)cc1 (stereo not drawn) | inconclusive: 50.1 µM [activator, single point] | 
CCn1c(SCC(=O)NCCOC)nc2sc3c(c2c1=O)CCCC3 | inconclusive: 17.8 µM [activator, partial curve, poor fit] | 
CC1CCC(=NNC(=O)Cc2cccn2C)CC1 (stereo not drawn) | inconclusive: 25.1 µM [activator, single point] | 
CC1CCc2c(sc(NC(=O)c3ccco3)c2C(=O)O)C1 (stereo not drawn) |  | inactive: 8.93%
Cc1c(N=C2SCC(=O)N2/N=C/c2ccccc2Cl)c(=O)n(-c2ccccc2)n1C | inconclusive: 56.2 µM [activator, partial curve, poor fit] | 
COc1ccc(N(CC(=O)Nc2ccc(S(=O)(=O)N3CCOCC3)cc2)S(=O)(=O)c2ccc(F)cc2)cc1 | inconclusive: 39.8 µM [activator, single point] | 
COC(=O)[C@]12CCCCC=C1N(Cc1ccc(Cl)cc1Cl)C(=O)[C@H](CC(=O)N1CCCCC1)C2 | inconclusive: 50.1 µM [activator, single point] | 
Cc1cccc(N2CCN(C(=O)c3ccc4nc[nH]c4c3)CC2)c1C |  | inactive: 6.8%
COC(=O)[C@]12C[C@H](CC(=O)N3CCSCC3)C(=O)N(CCc3ccc(OC)c(OC)c3)C1=C[C@H](C(C)(C)C)O[C@@H]2C | inconclusive: 20 µM [activator, single point] | 
O=C(CSC1=Nc2ccccc2C2=NC(CC(=O)N3CCN(c4ccccc4)CC3)C(=O)N12)NCC1CCCO1 (stereo not drawn) | inconclusive: 31.6 µM [activator, single point] | 
Cc1cc(C)cc(N2C(=O)CC(Sc3nnnn3-c3ccccc3)C2=O)c1 (stereo not drawn) | inconclusive: 56.2 µM [activator, partial curve, poor fit] | 
COC(=O)C(C(=O)OC)C1OC23CN(S(=O)(=O)c4ccc(C)cc4)C=CC2(C)C3c2ccccc21 (stereo not drawn) | inconclusive: 35.5 µM [activator, partial curve, poor fit] | 
Cc1ccc(OCC(=O)Nc2cccc(C(=O)OCc3cc(=O)n4cc(C)sc4n3)c2)cc1 |  | inactive: 17.7%
CCOc1ccc(NS(=O)(=O)c2ccc(C(=O)N3CCN(C(C)=O)CC3)cc2)cc1 | inconclusive: 50.1 µM [activator, single point] | 
CC(C)(C)c1ccc(Cn2nnc3c(=O)[nH]c(C4CCCN(C(=O)c5ccco5)C4)nc32)cc1 (stereo not drawn) | inconclusive: 50.1 µM [activator, single point] | 
CCOc1ccccc1NC(=O)c1c(NCc2ccc(OC)c(OC)c2OC)sc2c1CCC(C)C2 (stereo not drawn) | inconclusive: 17.8 µM [activator, partial curve, poor fit] | 
O=C(CSc1n[nH]c(-c2ccccc2)n1)c1ccc(O)c(O)c1 | inconclusive: 31.6 µM [activator, single point] | 

SMILES | Potency | growth rescue (activation)
CCc1ccc(C(C(=O)NCc2ccc(OC)cc2)N(CCOC)C(=O)Cc2cccs2)cc1 (stereo not drawn) |  | inactive: 31.1%
C[C@H](NC(=O)OC(C)(C)C)c1nnc(SCC(=O)Nc2ccc(Br)cc2)o1 | inconclusive: 50.1 µM [activator, single point] | 
C=C1C(=O)[C@]23C[C@H]1CC[C@H]2[C@]1(C)CCC[C@@](C)(C(=O)OC)[C@H]1C[C@@H]3O |  | inactive: -0.303%
CSc1ccc(Cn2c(C)c(C(=O)NCc3ccc4c(c3)OCO4)sc2=O)cc1 |  | inactive: 31.1%
Cc1cccc(NC(=O)CN(C)S(=O)(=O)c2ccc(Br)cc2)n1 |  | inconclusive: 10.4% [activator]
CN(C)c1ccc(C2CNC(c3ccc(Cl)c([N+](=O)[O-])c3)c3[nH]c4ccccc4c32)cc1 (stereo not drawn) | inconclusive: 50.1 µM [activator, single point] | 
CC(=O)Nc1ccc(C(=O)N2c3ccccc3N=C(c3ccc4c(c3)OCO4)C2C(=O)NCc2ccccc2)cc1 (stereo not drawn) | active: 12.6 µM | 
Cc1noc(C)c1C(=O)N1CCC(n2nnc3ncccc32)CC1 |  | inactive: -13.6%
COc1cc2c(=O)c(S(=O)(=O)c3ccc(C)cc3)cn(Cc3cccc(C)c3)c2cc1OC | inconclusive: 35.5 µM [activator, single point] | 
Cc1ccc(S(=O)(=O)N2CCN(C(=O)COC(=O)COc3ccccc3C(C)C)CC2)c(C)c1 | inconclusive: 15.8 µM [activator, partial curve] | 
CC(C)c1ccc(NC(=O)C(c2ccc3c(c2)OCO3)N2CCN(C(=O)c3ccco3)CC2)cc1 (stereo not drawn) | inconclusive: 50.1 µM [activator, single point] | 
CC(=O)c1cccc(NC(=S)NNC(=O)c2ccc(C)c([N+](=O)[O-])c2)c1 | inconclusive: 44.7 µM [activator, single point] | 
COc1ccc(NC(=O)CN(c2cccc(C)c2C)S(=O)(=O)c2ccccc2)cc1OC | inconclusive: 25.1 µM [activator, partial curve, poor fit] | 
CCc1ccc(S(=O)(=O)NCCc2csc(-c3ccccc3)n2)s1 |  | inactive: 25.6%
CCOc1ccc(CCNC(=O)CCc2nc(-c3ccc(C)cc3)no2)cc1OCC |  | inactive: -13.2%
O=C(NCc1ccccc1)c1cc(C2COCCN2C(=O)C/C=C/c2ccccc2)on1 (stereo not drawn) | inconclusive: 25.1 µM [activator, partial curve, poor fit] | 
Cc1ccccc1S(=O)(=O)N(C)C[C@@H]1OCc2ccccc2-c2c(n(C)c3ccccc23)C(=O)N([C@H](C)CO)C[C@@H]1C | inconclusive: 25.1 µM [activator, single point] | 
C[C@H](CO)N1C[C@H](C)[C@@H](CN(C)Cc2ccc(-c3ccccc3)cc2)Oc2c(NC(=O)Nc3ccc4c(c3)OCO4)cccc2C1=O |  | inactive: 30.3%
COc1ccc(N2CCN(C(=O)c3cccc(S(=O)(=O)N4CCCc5ccccc54)c3)CC2)cc1 | inconclusive: 15.8 µM [activator, single point] | 
